According to PubChem BioAssay (Tox21):
Several values for one entry are separate records, joined by “and”; a condition that tells them apart may be missing. Equal values may be shown once. The inconclusive results got no clear call from the source; some entries with a clear call stand among them for comparison. For some assays here: Potencies of inconclusive entries are doubtful fits and often do not repeat. Activity calls are given as the source filed them. Unless noted, the call rests on the fitted dose curve; in most records, active means well fitted curve in the direction sought with a large enough effect in the repeat runs; inconclusive means weak or mixed curves; inactive means no such curve, though single readings can be large; an effect the other way counts as inactive or inconclusive.

Key:
[1] = qHTS assay for small molecules that induce genotoxicity in human embryonic kidney cells expressing luciferase-tagged ATAD5 (AID 651632); details: HEK293T ATAD5-luciferase induction, 16 h; series mostly up to 83.3 µM; further: nearly all actives have a fitted effect of over 15% in size; further: potency means the concentration at half of the fitted maximal effect
In short: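 Test compounds were delivered by pin tool onto HEK293T reporter cells (2,000/well) expressing ATAD5 fused to luciferase. After 16 hr at 37C, 5% CO2, Amplite was added for 30 min at room temperature and luminescence was measured.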

[2] = qHTS assay for small molecule agonists of the p53 signaling pathway - cell viability (AID 651633; calls by dose curve; further: nearly all actives have a fitted effect of over 30% in size; further: potency means the concentration at half of the fitted maximal effect); details: p53RE-bla HCT-116 viability, ATP luminescence, 16 h; series mostly up to 83.3 µM
In short: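 Viability counter-read: CellTiter-Glo luminescence (30 min, room temperature) in the same p53RE-bla plates. These plates had been exposed to compounds for 16 h at 37 C.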

[3] = qHTS assay for small molecule disruptors of the mitochondrial membrane potential (AID 720635); details: HepG2 mitochondrial membrane potential, Mito-MPS dye ratio; ratio activity, negative = MMP loss: at 83.2 µM (top of the series) unless noted; further: potency means the concentration at half of the fitted maximal effect; on ratio activity, negative = MMP loss: on the % scale 0 is the no-effect control and ±100 the full control effect
In short: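 Mitochondrial membrane potential tracked with Mito-MPS dye, red aggregates (ex 540/em 590 nm) against green monomers (ex 490/em 535 nm). Compound treatment 1 hr at 37C, dye 30 min in HepG2.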

[4] = qHTS assay to test for compound auto fluorescence at 460 nm (blue) in HepG2 cell free culture (AID 720685); details: Cell-free culture medium, blue autofluorescence 405/460 nm; series mostly up to 91.3 µM; further: on the % scale 0 is the no-effect control and ±100 the full control effect
In short: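 Cell-free plates of MEM plus 10% FBS received 23 nL compound or DMSO vehicle; blue-channel (405/460 nm) intensity scored against triamterene as reference fluorophore.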

[5] = target: Glucocorticoid receptor (Homo sapiens) (UniProt P04150); test: qHTS assay to identify small molecule antagonists of the glucocorticoid receptor (GR) signaling pathway (AID 720692; active means well fitted inhibition curve with a large enough effect in the signal ratio in the repeat runs, not every such curve was filed as active; inconclusive means weak or mixed curves, or effect the other way; inactive means no such curve, though single readings can be large or run the other way; the % refers to the signal ratio; further: potency means the concentration at half of the fitted maximal effect); details: GR-bla HeLa, beta-lactamase FRET ratio, dexamethasone-stimulated, 18 h; activity change, negative = inhibition: at 58.5 µM (top of the series) unless noted
In short: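 GRE-bla HeLa line, dex-stimulated (5 nM final). Compound exposure 18 h, 37 C. Beta-lactamase FRET read after 2 h RT substrate.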

[6] = qHTS assay to identify small molecule antagonists of the glucocorticoid receptor (GR) signaling pathway - cell viability counter screen (AID 720693); details: GR-bla HeLa viability, CellTiter-Glo luminescence, 18 h, with 5 nM dexamethasone present; viability change, negative = cytotoxic: at 58.5 µM (top of the series) unless noted; further: nearly all actives have a fitted effect of over 55% in size; further: potency means the concentration at half of the fitted maximal effect
[7] = qHTS assay for identifying genotoxic compounds that show differential cytotoxicity against isogenic chicken DT40 cell lines with known DNA damage response pathways - wild type cell line (AID 743012); details: DT40 wild type chicken cells viability, CellTiter-Glo, 40 h; activity change, negative = cytotoxicity: at 68.4 µM (top of the series) unless noted; further: potency means the concentration at half of the fitted maximal effect; nearly all actives have a fitted effect of over 60% in size
In short: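 300 wt DT40 cells/well; cpd (DMSO) pintool-transferred after ~0.5 h at 37 C/5% CO2; 40 h incubation; CellTiter-Glo added, 30 min RT; luminescence read.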

[8] = qHTS assay to identify small molecule antagonists of the androgen receptor (AR) signaling pathway - cell viability counter screen (AID 743033; further: nearly all actives have a fitted effect of over 45% in size; further: potency means the concentration at half of the fitted maximal effect; on activity change, negative = cytotoxicity: on the % scale 0 is the no-effect control and ±100 the full control effect); details: AR-bla HEK293 viability, CellTiter-Glo luminescence, 16 h; activity change, negative = cytotoxicity: at 58.5 µM (top of the series)
[9] = qHTS assay for small molecule disruptors of the mitochondrial membrane potential - cell viability (AID 720634; calls by dose curve; further: potency means the concentration at half of the fitted maximal effect; nearly all actives have a fitted effect of over 20% in size); details: HepG2 viability, ATP luminescence (CellTiter-Glo), 1 h; series mostly up to 83.2 µM
In short: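 Same-well counter-screen: following the MMP dye addition, CellTiter-Glo was added to 1 hr compound-treated HepG2 cells and luminescence read after 30 min at room temperature.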

[10] = target: Glucocorticoid receptor (Homo sapiens) (UniProt P04150); test: qHTS assay to identify small molecule agonists of the glucocorticoid receptor (GR) signaling pathway (AID 720691; active means well fitted activation curve with a large enough effect in the signal ratio in the repeat runs, not every such curve was filed as active; inconclusive means weak or mixed curves, or effect the other way; inactive means no such curve, though single readings can be large or run the other way; the % refers to the signal ratio; further: potency means the concentration at half of the fitted maximal effect; on activation: on the % scale 0 is the no-effect control and ±100 the full control effect); details: GR-bla HeLa, beta-lactamase reporter ratio, 18 h; activation: at 62.4 µM (top of the series) unless noted
In short: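 A HeLa cervical cancer line expressing GR and a glucocorticoid response element-driven beta-lactamase gene is treated with compounds for 18 h; LiveBLAzer B/G FRET substrate is then applied and fluorescence read.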

[11] = qHTS assay for identifying genotoxic compounds that show differential cytotoxicity against isogenic chicken DT40 cell lines with known DNA damage response pathways - Rev3 mutant cell line (AID 743014); details: chicken DT40 Rev3-/- viability, CellTiter-Glo, 40 h; activity, negative = cytotoxicity: at 68.4 µM (top of the series); further: nearly all actives have a fitted effect of over 55% in size; further: potency means the concentration at half of the fitted maximal effect
[12] = qHTS assay for small molecules that induce genotoxicity in human embryonic kidney cells expressing luciferase-tagged ATAD5 - cell viability (AID 651634; calls by dose curve; further: potency means the concentration at half of the fitted maximal effect; nearly all actives have a fitted effect of over 25% in size); details: HEK293T ATAD5-luc cells viability, CellTiter-Fluor, 15.5 h; series mostly up to 83.3 µM
In short: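 Quantitative high-throughput format. HEK293T cells expressing ATAD5 fused to luciferase were plated at 2,000 cells/well and treated 15.5 hr with compound versus DMSO. Viability was determined by fluorescent live-cell protease substrate, 30 min at 37C.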

[13] = qHTS assay for identifying genotoxic compounds that show differential cytotoxicity against isogenic chicken DT40 cell lines with known DNA damage response pathways - Rad54/Ku70 mutant cell line (AID 743015); details: DT40 Rad54/Ku70 mutant viability, CellTiter-Glo, 40 h; activity change, negative = cytotoxicity: at 66.8 µM (top of the series); further: potency means the concentration at half of the fitted maximal effect; nearly all actives have a fitted effect of over 60% in size
Tags describe the fitted curve by direction and shape or compound fluorescence and quenching.

Sequence of UniProt P04150 (P04150 whole entry, looked up): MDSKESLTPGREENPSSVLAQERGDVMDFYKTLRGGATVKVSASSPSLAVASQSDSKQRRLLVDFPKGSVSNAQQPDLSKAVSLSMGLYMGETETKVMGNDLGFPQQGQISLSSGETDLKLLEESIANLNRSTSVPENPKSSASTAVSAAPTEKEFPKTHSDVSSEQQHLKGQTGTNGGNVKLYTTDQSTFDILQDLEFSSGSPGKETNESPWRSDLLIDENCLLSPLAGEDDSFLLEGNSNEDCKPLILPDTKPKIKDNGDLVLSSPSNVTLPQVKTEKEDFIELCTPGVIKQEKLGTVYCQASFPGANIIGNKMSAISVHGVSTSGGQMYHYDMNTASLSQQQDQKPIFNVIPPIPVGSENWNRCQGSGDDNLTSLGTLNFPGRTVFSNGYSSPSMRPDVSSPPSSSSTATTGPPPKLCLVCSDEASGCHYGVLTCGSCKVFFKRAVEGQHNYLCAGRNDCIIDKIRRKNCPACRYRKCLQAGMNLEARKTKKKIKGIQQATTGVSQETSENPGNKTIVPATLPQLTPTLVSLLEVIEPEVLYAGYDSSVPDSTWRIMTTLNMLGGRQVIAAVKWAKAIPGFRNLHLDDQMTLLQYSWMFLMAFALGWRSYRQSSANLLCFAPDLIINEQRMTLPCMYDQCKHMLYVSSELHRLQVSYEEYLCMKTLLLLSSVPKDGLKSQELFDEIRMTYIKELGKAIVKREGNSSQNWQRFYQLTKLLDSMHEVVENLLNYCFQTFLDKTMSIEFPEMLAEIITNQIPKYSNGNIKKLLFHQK

## c1cc(OCC2CO2)ccc1Cc1ccc(OCC2CO2)cc1 (configuration not stated)
[1]
  Potency: inconclusive: 68.9 µM [activator, partial curve, poor fit]
[2]
  Potency: inconclusive: 68.6 µM [cytotoxic, single point]
[3]
  Potency: inconclusive: 34.5 µM [rising, partial curve, poor fit]
  ratio activity, negative = MMP loss: inconclusive: -22.2%
[4]
  Potency: inactive
[5]
  Potency: inconclusive: 61.9 µM [cytotoxic, single point] and inconclusive: 54.9 µM [inhibitor, single point]
[6]
  Potency: inconclusive: 55.2 µM [cytotoxic] and inconclusive: 54.9 µM [cytotoxic, single point]
[7]
  Potency: inconclusive: 77.3 µM [cytotoxic, single point]
[8]
  Potency: inactive

## C[C@@H]1CC[C@@]2(OC1)O[C@H]1[C@@H](O)[C@H]3[C@@H]4CC[C@H]5C[C@@H](O[C@@H]6O[C@H](CO)[C@H](O[C@@H]7O[C@H](CO)[C@@H](O)[C@H](O[C@@H]8OC[C@@H](O)[C@H](O)[C@H]8O)[C@H]7O[C@@H]7O[C@H](CO)[C@@H](O)[C@H](O[C@@H]8O[C@H](CO)[C@@H](O)[C@H](O)[C@H]8O)[C@H]7O)[C@H](O)[C@H]6O)[C@H](O)C[C@]5(C)[C@H]4CC[C@]3(C)[C@H]1[C@@H]2C
[1]
  Potency: inconclusive: 11.5 µM [activator, partial curve]
[9]
  Potency: active: 18.3 µM
[3]
  Potency: active: 4.59 µM
[10]
  Potency: inconclusive: 10.4 µM [cytotoxic]
[5]
  Potency: inconclusive: 18.4 µM [cytotoxic, full curve]
[6]
  Potency: active: 16.4 µM
[11]
  Potency: active: 4.09 µM
[8]
  Potency: active: 2.32 µM

## O=C/C(Cl)=C(/Cl)C(=O)O
[1]
  Potency: inconclusive: 68.5 µM [activator, single point] and inconclusive: 24.3 µM [activator, partial curve]
[2]
  Potency: inconclusive: 12.2 µM [cytotoxic, full curve, poor fit]
[12]
  Potency: inconclusive: 61.1 µM [falling, single point]
[9]
  Potency: inconclusive: 76.9 µM [cytotoxic, partial curve, poor fit] and active: 61.1 µM
[3]
  Potency: active: 24.3 µM and active: 38.6 µM
[10]
  activation: inconclusive: -12.5% and inconclusive: -14.1%
[5]
  Potency: active: 48.9 µM and active: 49 µM
[6]
  Potency: inconclusive: 49 µM [cytotoxic, single point]
[7]
  Potency: inconclusive: 76.9 µM [cytotoxic, single point] and active: 17.2 µM
[13]
  Potency: inconclusive: 68.5 µM [cytotoxic]
[8]
  Potency: inconclusive: 43.6 µM [cytotoxic, partial curve] and inconclusive: 54.9 µM [cytotoxic]

## CC1(C)C(C=C(Cl)Cl)C1C(=O)OC(C#N)c1cccc(Oc2ccccc2)c1 (configuration not stated)
[1]
  Potency: inactive
[2]
  Potency: inconclusive: 33.5 µM [cytotoxic, partial curve, poor fit]
[5]
  activity change, negative = inhibition: inconclusive: -33.3% and inconclusive: -29.5%
[7]
  Potency: inconclusive: 23.7 µM [cytotoxic, partial curve, poor fit] and inconclusive: 61.1 µM [cytotoxic, single point]
[11]
  activity, negative = cytotoxicity: inconclusive: -31.9% [cytotoxic]
[13]
  Potency: inconclusive: 33.5 µM [cytotoxic, single point]

## FC(F)(F)c1ccc(Cl)cc1
[2]
  Potency: inactive

## CSCCCN=C=S
[1]
  Potency: inconclusive: 54.5 µM [activator, partial curve, poor fit]
[2]
  Potency: inconclusive: 68.6 µM [cytotoxic, single point]
[3]
  Potency: inconclusive: 68.6 µM [inhibitor, single point]
[10]
  Potency: inactive
[5]
  Potency: inconclusive: 43.6 µM [inhibitor, partial curve]
[6]
  Potency: inconclusive: 61.6 µM [cytotoxic, single point]
[13]
  Potency: active: 43.3 µM

## CCOP(=O)(NC(C)C)Oc1ccc(SC)c(C)c1 (configuration not stated)
[2]
  Potency: inconclusive: 48.6 µM [cytotoxic, partial curve, poor fit]
[12]
  Potency: inconclusive: 68.6 µM [falling, partial curve, poor fit]
[5]
  Potency: inconclusive: 15.5 µM [inhibitor, partial curve, poor fit]
[6]
  viability change, negative = cytotoxic: inconclusive: -43.9% [cytotoxic]
[8]
  Potency: inconclusive: 12.3 µM [cytotoxic, full curve]
